From patent publication US20230279153A1 (Regeneron, published 2023)

B1: 2 + 1 m20_mPL_1 (Fc fusion)
heavy 1: [letters of about 200 residues left out]GGGSGGGGSGGGGSQVQLQQPGAELVRPGTSVKLSCKASGYTFTSYWMHWIKQRPGQGLEWIGVIDPSDNYTKYNQKFKGKATLTVDTSSSTAYMQLSSLTSEDSAVYFCAREGYYGSSPWFAYWGQGTLVTVSSASTKGPSVFPLAPSSKSTSGGTAALGCLVKDYFPEPVTVSWNSGALTSGVHTFPAVLQSSGLYSLSSVVTVPSSSLGTQTYICNVNHKPSNTKVDKKVEPKSCDKTHTCPPCPAPEAEGAPSVFLFPPKPKDTLMISRTPEVTCVVVDVSHEDPEVKFNWYVDGVEVHNAKTKPREEQYNSTYRVVSVLTVLHQDWLNGKEYKCKVSNKALPSSIEKTISKAKGQPREPQVYTLPPCRDELTKNQVSLWCLVKGFYPSDIAVEWESNGQPENNYKTTPPVLDSDGSFFLYSKLTVDKSRWQQGNVFSCSVMHEALHNHYTQKSLSLSPGK
heavy 2: QVQLQQPGAELVRPGTSVKLSCKASGYTFTSYWMHWIKQRPGQGLEWIGVIDPSDNYTKYNQKFKGKATLTVDTSSSTAYMQLSSLTSEDSAVYFCAREGYYGSSPWFAYWGQGTLVTVSSASTKGPSVFPLAPSSKSTSGGTAALGCLVKDYFPEPVTVSWNSGALTSGVHTFPAVLQSSGLYSLSSVVTVPSSSLGTQTYICNVNHKPSNTKVDKKVEPKSCDKTHTCPPCPAPEAEGAPSVFLFPPKPKDTLMISRTPEVTCVVVDVSHEDPEVKFNWYVDGVEVHNAKTKPREEQYNSTYRVVSVLTVLHQDWLNGKEYKCKVSNKALPSSIEKTISKAKGQPREPQVCTLPPSRDELTKNQVSLSCAVKGFYPSDIAVEWESNGQPENNYKTTPPVLDSDGSFFLVSKLTVDKSRWQQGNVFSCSVMHEALHNRFTQKSLSLSPGK
light: QIVMSQSPAILSASPGEKVTMTCRARSSVSYIHWYQQKPGSSPKPWIYATSNLASGVPGRFSGSGSGTSYSLTITRVEAEDAATYYCQQWSSKPPTFGGGTKLEIKRTVAAPSVFIFPPSDEQLKSGTASVVCLLNNFYPREAKVQWKVDNALQSGNSQESVTEQDSKDSTYSLSSTLTLSKADYEKHKVYACEVTHQGLSSPVTKSFNRGEC
notes: Knob-into-hole heterodimer, 2 anti-mCD20 Fabs + 1 mPDL1 ectodomain
B2: 2 + 1 m20_mPL_2 (Fc fusion)
heavy 1: QVQLQQPGAELVRPGTSVKLSCKASGYTFTSYWMHWIKQRPGQGLEWIGVIDPSDNYTKYNQKFKGKATLTVDTSSSTAYMQLSSLTSEDSAVYFCAREGYYGSSPWFAYWGQGTLVTVSSASTKGPSVFPLAPSSKSTSGGTAALGCLVKDYFPEPVTVSWNSGALTSGVHTFPAVLQSSGLYSLSSVVTVPSSSLGTQTYICNVNHKPSNTKVDKKVEPKSCDKTHTCPPCPAPEAEGAPSVFLFPPKPKDTLMISRTPEVTCVVVDVSHEDPEVKFNWYVDGVEVHNAKTKPREEQYNSTYRVVSVLTVLHQDWLNGKEYKCKVSNKALPSSIEKTISKAKGQPREPQVYTLPPCRDELTKNQVSLWCLVKGFYPSDIAVEWESNGQPENNYKTTPPVLDSDGSFFLYSKLTVDKSRWQQGNVFSCSVMHEALHNHYTQKSLSLSPGKGGGGSGGGGSGGGGS[letters of about 200 residues left out]
heavy 2: B1 heavy 2
light: B1 light
notes: Knob-into-hole heterodimer, 2 anti-mCD20 Fabs + 1 mPDL1 ectodomain at the C-terminus of Fc
B3: 2 + 2 m20_mPL_1 (Fc fusion)
heavy 1: [letters of about 200 residues left out]GGGSGGGGSGGGGSQVQLQQPGAELVRPGTSVKLSCKASGYTFTSYWMHWIKQRPGQGLEWIGVIDPSDNYTKYNQKFKGKATLTVDTSSSTAYMQLSSLTSEDSAVYFCAREGYYGSSPWFAYWGQGTLVTVSSASTKGPSVFPLAPSSKSTSGGTAALGCLVKDYFPEPVTVSWNSGALTSGVHTFPAVLQSSGLYSLSSVVTVPSSSLGTQTYICNVNHKPSNTKVDKKVEPKSCDKTHTCPPCPAPEAEGAPSVFLFPPKPKDTLMISRTPEVTCVVVDVSHEDPEVKFNWYVDGVEVHNAKTKPREEQYNSTYRVVSVLTVLHQDWLNGKEYKCKVSNKALPSSIEKTISKAKGQPREPQVYTLPPCRDELTKNQVSLWCLVKGFYPSDIAVEWESNGQPENNYKTTPPVLDSDGSFFLYSKLTVDKSRWQQGNVFSCSVMHEALHNHYTQKSLSLSPGK
heavy 2: [letters of about 200 residues left out]GGGSGGGGSGGGGSQVQLQQPGAELVRPGTSVKLSCKASGYTFTSYWMHWIKQRPGQGLEWIGVIDPSDNYTKYNQKFKGKATLTVDTSSSTAYMQLSSLTSEDSAVYFCAREGYYGSSPWFAYWGQGTLVTVSSASTKGPSVFPLAPSSKSTSGGTAALGCLVKDYFPEPVTVSWNSGALTSGVHTFPAVLQSSGLYSLSSVVTVPSSSLGTQTYICNVNHKPSNTKVDKKVEPKSCDKTHTCPPCPAPEAEGAPSVFLFPPKPKDTLMISRTPEVTCVVVDVSHEDPEVKFNWYVDGVEVHNAKTKPREEQYNSTYRVVSVLTVLHQDWLNGKEYKCKVSNKALPSSIEKTISKAKGQPREPQVCTLPPSRDELTKNQVSLSCAVKGFYPSDIAVEWESNGQPENNYKTTPPVLDSDGSFFLVSKLTVDKSRWQQGNVFSCSVMHEALHNRFTQKSLSLSPGK
light: B1 light
notes: Knob-into-hole heterodimer, 2 Fabs + 2 N-terminal mPDL1 ectodomains
B4: m20_mPL_1 (Fc fusion)
heavy: B1 heavy 2
light: B1 light
chain: [letters of about 200 residues left out][letters of about 250 residues left out]
B5: 2 + 2 m20_mPL_2 (Fc fusion)
heavy 1: QVQLQQPGAELVRPGTSVKLSCKASGYTFTSYWMHWIKQRPGQGLEWIGVIDPSDNYTKYNQKFKGKATLTVDTSSSTAYMQLSSLTSEDSAVYFCAREGYYGSSPWFAYWGQGTLVTVSSASTKGPSVFPLAPSSKSTSGGTAALGCLVKDYFPEPVTVSWNSGALTSGVHTFPAVLQSSGLYSLSSVVTVPSSSLGTQTYICNVNHKPSNTKVDKKVEPKSCDKTHTCPPCPAPEAEGAPSVFLFPPKPKDTLMISRTPEVTCVVVDVSHEDPEVKFNWYVDGVEVHNAKTKPREEQYNSTYRVVSVLTVLHQDWLNGKEYKCKVSNKALPSSIEKTISKAKGQPREPQVYTLPPCRDELTKNQVSLWCLVKGFYPSDIAVEWESNGQPENNYKTTPPVLDSDGSFFLYSKLTVDKSRWQQGNVFSCSVMHEALHNHYTQKSLSLSPGKGGGGSGGGGSGGGGS[letters of about 200 residues left out]
heavy 2: QVQLQQPGAELVRPGTSVKLSCKASGYTFTSYWMHWIKQRPGQGLEWIGVIDPSDNYTKYNQKFKGKATLTVDTSSSTAYMQLSSLTSEDSAVYFCAREGYYGSSPWFAYWGQGTLVTVSSASTKGPSVFPLAPSSKSTSGGTAALGCLVKDYFPEPVTVSWNSGALTSGVHTFPAVLQSSGLYSLSSVVTVPSSSLGTQTYICNVNHKPSNTKVDKKVEPKSCDKTHTCPPCPAPEAEGAPSVFLFPPKPKDTLMISRTPEVTCVVVDVSHEDPEVKFNWYVDGVEVHNAKTKPREEQYNSTYRVVSVLTVLHQDWLNGKEYKCKVSNKALPSSIEKTISKAKGQPREPQVCTLPPSRDELTKNQVSLSCAVKGFYPSDIAVEWESNGQPENNYKTTPPVLDSDGSFFLVSKLTVDKSRWQQGNVFSCSVMHEALHNRFTQKSLSLSPGKGGGGSGGGGSGGGGS[letters of about 200 residues left out]
light: B1 light
notes: Knob-into-hole heterodimer, 2 Fabs + 2 C-terminal mPDL1 ectodomains

The binders below were run against T1, mouse PD1 (mouse, UniProt Q02242 25-288) (assay: cell-based or functional assay).
T1 sequence (looked up): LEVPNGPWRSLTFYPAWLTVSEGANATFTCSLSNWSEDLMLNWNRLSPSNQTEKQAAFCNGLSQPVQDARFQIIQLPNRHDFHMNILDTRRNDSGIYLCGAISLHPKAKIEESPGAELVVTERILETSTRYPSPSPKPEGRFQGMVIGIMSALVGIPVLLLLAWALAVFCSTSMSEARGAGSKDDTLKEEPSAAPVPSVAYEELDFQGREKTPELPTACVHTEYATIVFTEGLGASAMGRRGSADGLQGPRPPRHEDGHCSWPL

Binder | Max % inhibition, luciferase bioassay, 2.5 nM CD3 bsAb [%] | IC50 (M), luciferase bioassay, 2.5 nM CD3 bsAb [M]
B1 | 16 | 
B2 | 10 | 
B3 | 27 | 1.92e-10
B4 | 18 | 
B5 | 8 | 

What follows are binders tested against T2, mouse CD20 (mouse, UniProt P19437 1-291) (assay: flow cytometry on MC38/mCD20 cells).
T2 construct: whole, on cells; also called mCD20; murine CD20
T2 sequence (looked up): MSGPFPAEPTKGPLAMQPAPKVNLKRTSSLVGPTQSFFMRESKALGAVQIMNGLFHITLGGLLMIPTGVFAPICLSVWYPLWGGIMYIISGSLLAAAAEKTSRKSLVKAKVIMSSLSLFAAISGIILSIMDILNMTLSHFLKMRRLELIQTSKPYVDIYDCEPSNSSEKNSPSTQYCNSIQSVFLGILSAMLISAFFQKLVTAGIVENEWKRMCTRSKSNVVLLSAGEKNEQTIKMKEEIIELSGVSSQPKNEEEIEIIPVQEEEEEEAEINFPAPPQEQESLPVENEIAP
Procedure: (§1) Cells (HEK 293, MC38 over-expressing mCD20 or Jurkat over-expressing mPD1) were resuspended in FACS wash (PBS with 1% FBS) at 1×10⁶ cells/mL. The staining was performed in 1×10⁵ cells per well. The antibodies were diluted with a ratio of 1:5 from a starting concentration of 1.3×10⁻⁰⁷ M. The diluted antibodies were then added into the wells containing cells. Cells were stained for 30 min at 2-8° C. and washed twice with FACS wash buffer. APC-conjugated goat anti-human IgG (Jackson Immuno Research, 109-607-003, 1:400) was added to stain the cells for 30 min at 2-8° C. Following washing, cells were fixed in 2% paraformaldehyde for 30 min at 2-8° C. After two washes, stained cells were analyzed using BD LSRFortessa™ FACS instrument. The results were analyzed by FlowJo. FSC/SSC gates were used to select mononuclear cells.

Binder | EC50 [nM] | Max MFI [MFI]
B1 | 6.4 | 39100
B2 | 3.52 | 42700
B3 | 18.1 | 31000
B4 |  | 16800
B5 | 3.45 | 37300

What follows are binders tested against T1, mouse PD1 (assay: flow cytometry on Jurkat/mPD1 cells).
Procedure: as §1

Binder | EC50 [nM] | Max MFI [MFI]
B1 | 124 | 13400
B2 |  | 1190
B3 | 2.95 | 11600
B4 |  | 8150
B5 | 15.1 | 8500
